Test results: PubChem BioAssay AID1347417 (National Center for Advancing Translational Sciences (NCATS), 2020)
Out of some 120,000 compounds screened, about 5,300 (4.4%) were called active. The shares of active, inactive and inconclusive entries below differ from those in the screen. Calls come from the whole dose curve; as a rule, active = well fitted inhibition curve with a large enough effect; inconclusive = small, poorly fitted or top-dose-only effect; inactive = no such curve, though single readings can be large or run the other way. Potencies beside an inconclusive call are fits to weak or partial responses and may not hold up.

Assay: qHTS Primary assay for Inhibitors of Plasmodium falciparum Dd2 growth in vitro; note: nearly all actives have a fitted effect of over 65% in size
Settings: P. falciparum Dd2 growth, SYBR Green, 72 h; series mostly up to 28.9 µM
Outline: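 Infected erythrocytes (Dd2, 0.3% parasitemia, 2.5% hematocrit final) are added to compound in RPMI-1640/Albumax II medium, grown 72 h at 37C in low oxygen, then lysed with saponin/Triton-X containing SYBR Green and read by fluorescence.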
Potency is the fitted concentration of half-maximal effect; tags give direction and shape of the fitted curve.

Row | Structure (SMILES) | Potency
1 | CCn1cc(CN2CCCCCCNC(=O)[C@@H]3CCC[C@@H]32)c(C)n1 | inconclusive: 7.08 µM [inhibitor, partial curve, poor fit]
2 | Cc1ccc(CN2CCC3(CC2)COc2ccccc2NC3=O)cc1 | inconclusive: 7.08 µM [inhibitor, partial curve]
3 | CCc1noc(-c2cccn3c(CNC(=O)c4cccc(F)c4)nnc23)n1 | inconclusive: 0.398 µM [inhibitor, full curve, poor fit]
4 | CCOc1ccc2oc(=O)cc(CN3CCN(c4cc(C)ccc4C)CC3)c2c1 | inconclusive: 17.8 µM [inhibitor, single point]
5 | COCC1CN(C2CCC2)CC12CCN(C(=O)c1ccccc1C)CC2 (centres undefined) | inconclusive: 5.62 µM [inhibitor, partial curve, poor fit]
6 | O=C(c1cccc(F)c1)N1CCCN(c2cc(-c3ccc(F)cc3)[nH]n2)CC1 | inconclusive: 3.98 µM [inhibitor, single point]
7 | CC(=O)N1c2nc(C(C)C)nn2C2(CCCCC2)[C@@H]2CCCC[C@@H]21 | inconclusive: 20 µM [inhibitor, single point]
8 | O=C(O)CSCC(=O)N[C@H]1C[C@H]2C(=O)Nc3ccc(-c4cccs4)cc3C(=O)N2C1 | inconclusive: 7.94 µM [inhibitor, partial curve, poor fit]
9 | Cc1ccc(-c2nnc3ccc(N4CCN(Cc5ccccc5)CC4)nn23)nc1 | inconclusive: 7.94 µM [inhibitor, partial curve, poor fit]
10 | Cc1[nH]cnc1CN1CCc2nc(C(=O)NCCOc3ccccc3)oc2CC1 | inconclusive: 14.1 µM [inhibitor, single point]
11 | CCn1c2c(c(=O)n3ncc(C(=O)Nc4cc(Cl)ccc4C)c13)CN(Cc1ccc(OC)cc1)CC2 | inconclusive: 17.8 µM [inhibitor, single point]
12 | Cc1ccn2c(Nc3ccc(C(C)C)cc3)c(-c3cccs3)nc2c1 | active: 11.2 µM
13 | CC(C)(C)C(=O)N1CCCC(c2nn(-c3ccccc3)c(=O)[nH]2)C1 (centres undefined) | inactive
14 | COc1cc(-c2ccnc3nc(-c4ccco4)nn23)cc(OC)c1OC | inconclusive: 5.62 µM [inhibitor, partial curve]
15 | CN1C(=O)c2cccn2CC1C(=O)NCc1ccco1 (centres undefined) | inactive
16 | O=C(Nc1ccc2c(c1)C(=O)N1CCC[C@H]1C(=O)N2)c1cc(-c2ccc3c(c2)CCO3)n[nH]1 | inconclusive: 2.24 µM [inhibitor, partial curve]
17 | CC(=O)NC[C@H]1CCN(C(=O)NCc2ccc(F)cc2)C[C@H]1N(C)C | inactive
18 | O=C(NCc1nnc2c(-c3nc(C4CC4)no3)cccn12)c1c(F)cccc1Cl | inconclusive: 0.794 µM [inhibitor, full curve, poor fit]
19 | O=C(N[C@@H]1CN(c2ncccn2)C[C@H]1CO)c1cc2ccccc2[nH]1 | inconclusive: 0.0708 µM [inhibitor, full curve, poor fit]
20 | CC(C)(C)NC(=O)C1CCCN(C2CCN(C3Cc4ccccc4C3)CC2)C1 (centres undefined) | inconclusive: 1.58 µM [inhibitor, full curve]
21 | CCOC(=O)c1c(NC(=O)/C=C/c2ccc(OCC)cc2)sc2c1CCC2 | inconclusive: 0.0355 µM [inhibitor, full curve, poor fit]
22 | COc1ccc(S(=O)(=O)N2CCCC(Cc3noc(-c4ccncc4)n3)C2)cc1 (centres undefined) | inconclusive: 0.0631 µM [inhibitor, full curve, poor fit]

Row | Structure (SMILES) | Potency
23 | CC(c1ccccc1-n1cccn1)n1cc(-c2nccn2C)nn1 (centres undefined) | inactive
24 | c1ccc(CN2CCc3[nH]cnc3C2c2ccc(-c3ccccn3)cc2)nc1 (centres undefined) | inconclusive: 8.91 µM [inhibitor, single point]
25 | Cc1cccc(C)c1Nc1c(-c2ccccc2O)nc2ncccn12 | inconclusive: 14.1 µM [inhibitor, single point]
26 | Cc1ccc(O)c(CN2CC[C@@H](c3ccc4ccccc4c3)[C@H](O)C2)n1 | inconclusive: 10 µM [inhibitor, single point]
27 | Cc1ccccc1CN1CC2(COCC1=O)CN(c1ccc(C(F)(F)F)cn1)C2 | inconclusive: 11.2 µM [inhibitor, single point]
28 | Cc1nnc(-c2cc(Nc3cccc(N(C)C)c3)ccn2)n1Cc1ccccc1 | inconclusive: 1.78 µM [inhibitor, full curve, poor fit]
29 | COc1ccc(C(=O)N2CCOCC3(CN(Cc4cc(C)cc(F)c4)C3)C2)cc1OC | inconclusive: 2.51 µM [inhibitor, full curve, poor fit]
30 | COc1ccc(OC)c(Nc2ncncc2-c2nc(-c3ccccc3)no2)c1 | inconclusive: 1.26 µM [inhibitor, partial curve, poor fit]
31 | O=C(Nc1ccc2[nH]ccc2c1)C1=NO[C@@H]2CN(c3ccccn3)C[C@H]12 | inconclusive: 22.4 µM [inhibitor, single point]
32 | CC(C)CC(C)NC(=O)c1ccc(CN2C(=O)NC3(CCS(=O)(=O)CC3)C2=O)cc1 (centres undefined) | inactive
33 | CN1c2cc(C(=O)NCc3cccs3)ccc2C(=O)N2CCCC21 (centres undefined) | inactive
34 | O=C(OCC1CCCO1)c1ccc2c(c1)N(Cc1ccccc1F)C(=O)c1ccccc1S2(=O)=O (centres undefined) | inconclusive: 0.199 µM [inhibitor, full curve, poor fit]
35 | O=C(NC[C@H]1O[C@H](Cc2cc(CN3CCN(c4ccccc4)CC3)on2)CC[C@@H]1O)c1ccccc1 | inconclusive: 5.01 µM [inhibitor, partial curve]
36 | COc1ccc(NC(=O)c2ccc3c(c2)NC(C)(CNc2ccccc2)CO3)cn1 (centres undefined) | inconclusive: 8.91 µM [inhibitor, partial curve, poor fit]
37 | Cc1cccc(OCCCCn2c(C3CC(=O)N(c4ccc(C)cc4C)C3)nc3ccccc32)c1 (centres undefined) | active: 11.2 µM
38 | O=C(c1ccco1)N1CCC2(CC1)CC(N(Cc1ccccc1)C1CC1)CCO2 (centres undefined) | active: 4.47 µM
39 | CNc1oc(/C=C/c2cc(OC)c(OC)c(OC)c2)nc1C#N | inconclusive: 10 µM [inhibitor, partial curve, poor fit]
40 | COc1cc(C(=O)N2CCC3(CC2)CC(=O)N(C)C3)ccn1 | inactive
41 | CCCCNC(=O)[C@@H](c1ccccc1)N1Cc2ccccc2C1=O | inactive
42 | O=C1N(c2ccccc2)c2ccccc2C12CCN(CC1CC1)C2 (centres undefined) | inconclusive: 7.94 µM [inhibitor, partial curve]
43 | COc1ccc(C(C)C)cc1CN1CCCC(CNC(C)=O)C1 (centres undefined) | inconclusive: 7.94 µM [inhibitor, partial curve, poor fit]
44 | CCc1nc2c(c(-c3ccc(Cl)cc3)n1)CCN(C(=O)c1ccccc1F)CC2 | inconclusive: 6.31 µM [inhibitor, partial curve, poor fit]

Row | Structure (SMILES) | Potency
45 | O=C(Cc1ccc(F)cc1)NCCc1csc(-c2ccc(C(F)(F)F)cc2)n1 | inconclusive: 11.2 µM [inhibitor, single point]
46 | CNC(=O)C(C)(C)N1CCC[C@H]1C(=O)NC1CCCC1 | inactive
47 | COc1ccc(-c2cc3c(=O)n(CCNC(=O)c4ccc(OC)nc4)ccn3n2)cc1 | inconclusive: 0.178 µM [inhibitor, full curve, poor fit]
48 | CN(C)c1cccc(NC(=O)c2ccc3c(c2)NC(C)(COc2ccccc2)CO3)c1 (centres undefined) | inconclusive: 6.31 µM [inhibitor, partial curve, poor fit]
49 | O=C1NCN(Cc2ccc(Cl)cc2)C12CCN(Cc1ccc(F)cc1)CC2 | inactive
50 | CCOc1ccc(CCNC(=O)c2nn(-c3ccc(OC)cc3)c(=O)c3c2c2ccccc2n3C)cc1OCC | inconclusive: 10 µM [inhibitor, single point]
51 | COc1ccccc1C(=O)N1CCC2(CC1)COc1ccccc1CN2 | inconclusive: 0.355 µM [inhibitor, full curve, poor fit]
52 | COCCCn1c(C)cnc1C1CCN(C(=O)C2(c3ccc(OC)cc3)CC2)C1 (centres undefined) | inconclusive: 7.08 µM [inhibitor, partial curve]
53 | CCCOc1ccc(CN2C[C@@H](CO)[C@H](c3ccccn3)C2)cc1 | active: 2.82 µM
54 | O=C(c1ccc(Cl)cc1)N1CC2(CCN(Cc3c[nH]c4ccccc34)CC2)Cc2ccccc21 | active: 2.51 µM
55 | Cc1ccc(C(=O)CSc2nnc3ccc4ccccc4n23)cc1 | inconclusive: 10 µM [inhibitor, single point]
56 | O=C(NC1CCCCC1)/C(=C/c1ccc(Cl)cc1)NC(=O)c1ccccc1 | inconclusive: 8.91 µM [inhibitor, partial curve]
57 | CC1(c2ccccc2)N(Cc2cccnc2)C(=O)OC12CCN(C(=O)c1ccc(Oc3ccccc3)cc1)CC2 (centres undefined) | active: 6.31 µM
58 | COCCOC1CN(C2CCN(Cc3ccc(F)c(F)c3)CC2)C12CCCCC2 (centres undefined) | active: 2.51 µM
59 | O=C(c1ccc(Cl)cc1)N1CC2(CCCN2C2COC2)Cc2ccccc21 (centres undefined) | inconclusive: 14.1 µM [inhibitor, single point]
60 | Cc1ccccc1NC(=O)c1ccc2c(c1)OCCN(C1CCC1)C2 | inconclusive: 31.6 µM [inhibitor, single point]
61 | CC(C)C1CN(c2ccc(C#N)cn2)CCC(=O)N1Cc1ccc(F)cc1 (centres undefined) | inactive
62 | O=C(NCC(F)F)C1CN(Cc2ccccc2)C(=O)N1 (centres undefined) | inactive
63 | Cc1ccccc1CN1C(=O)C(O)(CC(=O)c2cccc(Br)c2)c2ccccc21 (centres undefined) | inconclusive: 17.8 µM [inhibitor, single point]
64 | COc1ccccc1CN1C[C@@H](C(=O)O)C[C@H](C(=O)NCc2ccccn2)C1 | inactive
